# Results from PubChem BioAssay AID1240 (Sanford-Burnham Center for Chemical Genomics, 2008).
# Screen size: about 50,000 compounds; about 800 (1.6%) showed an effect of 50% or more. This is one part of the list.
# Target: Bcl-2-like protein 10 (Homo sapiens) (UniProt Q9HD36)
# Experiment: TR3 peptide-Bcl-B binding displacers, biochemical primary FP assay, phenotype converters (AID 1240);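 note: 0% = Bcl-B with tracer peptide and DMSO and 100% = tracer peptide lacking Bcl-B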
# Details: GST-Bcl-B / FITC-TR3 peptide fluorescence polarization; stronger effect = higher value; compound at 3.75 mg/L
# Sequence of UniProt Q9HD36 (Q9HD36 whole entry, looked up): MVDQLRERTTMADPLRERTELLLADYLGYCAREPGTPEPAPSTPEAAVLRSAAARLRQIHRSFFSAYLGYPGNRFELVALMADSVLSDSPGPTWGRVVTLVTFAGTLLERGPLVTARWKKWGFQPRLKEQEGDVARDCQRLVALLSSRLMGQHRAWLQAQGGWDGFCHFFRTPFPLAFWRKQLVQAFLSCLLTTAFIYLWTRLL
row,Structure (SMILES),displacement [%]
1,O=C(COc1ccccc1)Nc1ccc(Br)cn1,1.8
2,CC(NC(=O)CCC(=O)NC(C)C1COc2ccccc2O1)C1COc2ccccc2O1 (stereo unspecified),6.9
3,CCc1ccc(CN2CCN(Cc3cccc(OC)c3OC)CC2)cc1,-7.7
4,CN(C)c1ccc(/C=C/C(=O)C2C(=O)CCC2=O)cc1,-38.6
5,CS(=O)(=O)N(CC(=O)NCCc1ccccc1)c1cccc(C(F)(F)F)c1,7.1
6,CCOC(=O)C1=C(O)/C(=C/c2cc(OC)c(OC)c(OC)c2)SC1=Nc1ccc(C)cc1,-5.5
7,O=c1/c(=C/c2cccc([N+](=O)[O-])c2)sc2nnc(-c3ccccc3)n12,-3.6
8,COc1ccc(NC(=O)O/N=C\c2ccc(Br)cc2)cc1,9.9
9,O=C(Nc1ccc2c(c1)OCCO2)C1c2ccccc2Oc2ccccc21,-6.3
10,COc1ccc(-n2c(SCc3ccccc3)nc3sc4c(c3c2=O)CCC4)cc1,-7.2
11,CCOC(=O)C1=CS/C(=C2/C(=S)C(C)(C)Nc3cc(C)ccc32)S1,15
12,COC(=O)c1cccc(S(=O)(=O)N2CCOCC2)c1,-16
13,C=CCc1ccccc1OCCOc1c(Cl)cc(/C=N/n2cnnc2)cc1OCC,2.2
14,O=C1NCc2ccccc2C1(c1ccc(F)cc1)c1ccc(F)cc1,-3.4
15,Cc1nc(=O)c(-c2ccccc2)c(C)n1-c1ccc(C(=O)O)c(O)c1,-8.9
16,O=C(Nc1ccc(S(=O)(=O)N2CCc3ccccc32)cc1)c1ccc(F)cc1,-13.5
17,COc1ccc(S(=O)(=O)N2CCN(CCN3C(=O)c4cccc5cccc(c45)C3=O)CC2)cc1[N+](=O)[O-],12.9
18,CCc1c(C)nc(N)nc1N1CCOCC1,-2.7
19,O=C(CC(=O)c1ccccc1)Nc1cccnc1,-0.1
20,CCc1ccc(NC(=O)CCc2ccccc2)cc1,0.2
21,COc1ccc(C=C2C=C(C(C)(C)C)C(=O)C(C(C)(C)C)=C2)cc1OC,-7.3
22,CCOC(=O)CCNC(=O)c1ccccc1Cl,7.7
23,C=CCn1c(O)c(C2=c3ccccc3=NC2=O)s/c1=N\S(=O)(=O)c1ccc([N+](=O)[O-])cc1,-1.4

row,Structure (SMILES),displacement [%]
1,CCOC(=O)C1=C(O)/C(=C/c2cccc(O)c2)SC1=Nc1cccc(Cl)c1,-5.2
2,CCOc1cc(/C=C(\C#N)C(=O)NC(C)c2ccccc2)ccc1O (stereo unspecified),-11.4
3,CC12CCCCC1C2C(=O)N/N=C\c1ccc(-c2ccc(C(=O)O)cc2)o1 (stereo unspecified),-5
4,O=C1c2ccccc2C(=O)N1c1ncn[nH]1,-9
5,O=C1C(=O)N(c2ccccn2)C(c2cccc(Br)c2)/C1=C(\O)c1ccc(Cl)cc1 (stereo unspecified),18.4
6,O=C(COc1ccc(Cl)cc1)Nc1ccc(Oc2ccccc2)cc1,1.8
7,NC(=S)N/N=C/c1ccc(-c2ccc(Cl)c(Cl)c2)o1,-16
8,O=C(CSc1nc2ccc(N3C(=O)c4ccccc4C3=O)cc2s1)c1ccc(Cl)cc1,-4.7
9,Cc1ccc2[nH]c3nc(NN)nnc3c2c1,4.9
10,Cc1ccc(S(=O)(=O)NNc2ccccc2[N+](=O)[O-])cc1,-9.6
11,Cc1ccc(S(=O)(=O)N(C)CCCC(=O)Nc2ccc(C)cc2C)cc1,13.1
12,CCOc1ccc2nc(NC3=NCCC(=O)N3)nc(C)c2c1,10
13,CCCc1nc2c(o1)CC(CC(C)SCC)CC2=O (stereo unspecified),0.2
14,COc1ccc(NC(=O)c2cccnc2)cc1OC,-3
15,N/C(=N\c1nc2ccccc2o1)NC(=O)c1cccc(F)c1,-27.8
16,CC(NC(=S)NCc1ccccc1)C1COc2ccccc2O1 (stereo unspecified),-5.1
17,COc1cc(C2Nc3ccccc3C(=O)N2c2ccc(C)cc2)ccc1O (stereo unspecified),11
18,CCOc1cc(OCC)cc(C(=O)Nc2cccc3ccccc23)c1,14.4
19,C=CCNC(=O)COc1ccccc1C,-15.2
20,O=[N+]([O-])c1ccc(N2CCCCC2)c(Cl)c1N1CCCCC1,-10.4
21,CN(C)NC1S/C(=C/C(=O)O)C(=O)N1c1ccccc1 (stereo unspecified),7.8
22,CCOc1ccccc1NC(=O)c1ccc2c(c1)C(=O)N(CC(C)C)C2=O,13.8
23,CCOc1ccc(CNc2cccc(SC)c2)cc1,-4.2

row,Structure (SMILES),displacement [%]
1,CCN(CC)CCSc1nc2sc3c(c2c(=O)n1-c1ccc(OC)cc1)CCCC3,-21
2,Nc1ccc(C(=O)c2ccc(N)c(N)c2)cc1N,1
3,O=C(NCCCNc1ccc([N+](=O)[O-])cc1)C(c1ccccc1)c1ccccc1,1.1
4,CC(C)c1cc(NS(=O)(=O)c2ccccc2[N+](=O)[O-])cc(C(C)C)c1O,15.1
5,CCCCCCCCn1c(C)cc(=O)[nH]c1=O,16.6
6,COC(=O)C1=C(O)/C(=C\c2ccc([N+](=O)[O-])cc2)N=C1C,-1
7,Cc1cc2nn(-c3ccccc3)nc2cc1NC(=O)c1ccc(Br)cc1,8.5
8,COc1ccc(-c2nnc(Nc3ccc(C)cc3)c3ccccc23)cc1,3.4
9,CCn1c2ccccc2c2nnc(N/N=C/c3cccc(I)c3)nc21,-4.2
10,Cc1ccc(NC(=O)c2ccc(I)cc2)cc1C,6.4
11,Cc1ccc(-n2c(C)cc(/C=N/NC(=O)CN3CCOCC3)c2C)cc1C,-8.4
12,CCCOc1ccc(N2C(=O)CC(N(CCc3ccc(OC)c(OC)c3)C(C)=O)C2=O)cc1 (stereo unspecified),0.6
13,COc1cc(C(=O)NN2C(=O)/C(=C/c3ccccc3)SC2=S)ccc1O,-12.9
14,CCOC(=O)c1ccc(NC2=C(N3CCCCC3)C(=O)c3ccccc3C2=O)cc1,10.2
15,CCOC(=O)C1=C(C)N=c2s/c(=C\c3cccnc3)c(=O)n2C1c1ccc(OC)cc1 (stereo unspecified),6.5
16,COc1ccc(C2CC(=O)C3=C(C2)Nc2ccccc2NC3c2cccc(F)c2)cc1OC (stereo unspecified),-1.9
17,CC(C)(C)CC(C)(C)NC(=O)CSc1nnc(-c2ccco2)n1-c1ccccc1,-6
18,O=[N+]([O-])c1ccc2c(c1)S(=O)(=O)NC2=NCCCN1CCOCC1,-6.5
19,CCCc1nnc(NC(=O)COC(=O)/C=C/c2ccco2)s1,-6
20,CCCCCOC(=O)C1=C(C)NC(=O)NC1c1ccc(Br)cc1 (stereo unspecified),8.5
21,Cc1ccc(C2OC(=O)c3ccccc32)cc1 (stereo unspecified),11.4
22,COc1cc(C2NC(=O)NC(C)=C2C(=O)Nc2ccc(C)cc2)cc(OC)c1OC (stereo unspecified),5.9
23,CCOC(=O)c1sc(NC(=O)c2cncc(Br)c2)c(C(=O)OCC)c1C,9.2

row,Structure (SMILES),displacement [%]
1,CN1C(=O)/C(=C\c2ccc3c(c2)OCO3)OC1=S,-4.6
2,N=C1S/C(=C\c2ccc(-c3ccc(F)cc3)o2)C(=O)N1c1ccc2c(c1)OCO2,11.6
3,O=C(CN(c1cccc([N+](=O)[O-])c1)S(=O)(=O)c1ccccc1)NCc1ccco1,-1.1
4,CC1(C)CC(NC(=O)c2ccccc2Cl)CC(C)(C)N1,-9.3
5,COc1ccc2nc(NC(=S)NC(=O)c3ccc(Cl)cc3)sc2c1,11.2
6,CC1(C)C/C(=N\N)c2cc(=O)[nH]nc2C1,3.7
7,Cc1cc(-n2c(C)cc(C=O)c2C)ccc1I,-15.5
8,O=C(NCCCn1ccnc1)c1cnn2c(C(F)(F)F)cc(-c3ccc(Br)cc3)nc12,11.8
9,Cc1ccc(S(=O)(=O)NCCOc2ccc(Cl)cc2)cc1[N+](=O)[O-],14.6
10,CC(C)=C1C(=O)NN(c2cccc(Br)c2)C1=O,29
11,CCOc1ccc(-c2cc(C)n3nc(C(=O)Nc4cccc(O)c4)cc3n2)cc1,2.3
12,COc1ccc(CC(=O)NC(C)C2COc3ccccc3O2)cc1OC (stereo unspecified),-4.2
13,COc1cccc(OC)c1C(=O)NCc1ccc(S(N)(=O)=O)cc1,17.8
14,CCc1ccc(NC(=O)c2cnccn2)cc1,5.9
15,COc1ccccc1C1CC(=O)Nc2ccc3ccccc3c21 (stereo unspecified),-4.1
16,COc1cccc(OC)c1C(=O)NNC(=O)c1ccc(Cl)cc1,-9.4
17,O=S(=O)(Nc1ccc2c(c1)OCO2)c1cc(Cl)ccc1Cl,5
18,COC(=O)c1ccccc1NC(=O)c1ccc(CN(c2ccccc2)S(C)(=O)=O)cc1,3
19,COc1ccccc1CNCc1cccc([N+](=O)[O-])c1,-4.6
20,Clc1ccc(Sc2c(-c3ccccc3)nc3sccn23)cc1,-39.1
21,Cc1ccc(C(=O)O)cc1N1C(=O)c2ccc(S(=O)(=O)c3ccc(C(=O)O)cc3)cc2C1=O,17.1
22,O=C(O)CC1NC(=S)N(c2ccccc2)C1=O (stereo unspecified),8.8
23,CC(=O)Oc1ccc(/C(C)=N/N2CCN(Cc3cccc4ccccc34)CC2)cc1,15.4

row,Structure (SMILES),displacement [%]
1,NC(=O)c1c(NC(=O)CN2C(=O)c3ccccc3C2=O)sc2c1CCC2,-4.8
2,CCc1ccc(S(=O)(=O)Nc2ccccc2OC)cc1,13.8
3,Cc1ccc(NC(=O)C(C)(C)C)cc1[N+](=O)[O-],-1.9
4,CN1CCN(NC(=S)Nc2cccc(Cl)c2)CC1,1.8
5,O=C(Nc1ccc2nn(-c3ccc(Cl)cc3)nc2c1)c1ccc([N+](=O)[O-])cc1,15.7
6,CCC(=O)N1c2ccccc2C(N(C(=O)c2ccccc2)c2cccc([N+](=O)[O-])c2)CC1C (stereo unspecified),-0.7
7,Cc1ccc([N+](=O)[O-])c2c1NCC1CC=CC21 (stereo unspecified),5.9
8,O=C(O)CCCCCN=C1CCCc2ccccc2N1,10.9
9,O=c1c(N=Nc2ccc(F)cc2)c(-c2ccccc2)[nH]n1-c1nc(-c2ccccc2)cs1,-3.5
10,CCC1=NN(C(=O)CCc2ccccc2)C(O)(c2ccncc2)C1 (stereo unspecified),-2.7
11,CN1C(=O)/C(=C\c2ccc(OCCOc3ccc([N+](=O)[O-])cc3)cc2)SC1=S,-0.4
12,O=C(COc1ccccc1)NCCCNC(=O)COc1ccccc1,-6.6
13,CCOc1cc(/C=C2\SC(=S)N(C3CCCCC3)C2=O)ccc1O,-19.4
14,CCOC(=O)c1c(NC(=O)CNCc2ccccc2)sc2c1CCCCC2,-3.3
15,CCCCCC(=O)N/N=C(/C)c1cccs1,-8.9
16,Cc1cc(C)c(Cc2cc([N+](=O)[O-])ccc2C)c(C)c1,8.8
17,Cc1cc2nc(-c3cccc(NC(=S)NC(=O)c4ccco4)c3)oc2cc1C,6.8
18,COc1cc(C(=O)N2CCc3ccccc3C2)cc(OC)c1OC,10
19,O=C(COc1ccccc1)N/N=C/c1ccccc1Cl,6.3
